Molecules are shown by their SMILES. Where a name gives a salt, the structure may show the parent alone. Some of the results follow. Repeats are few or missing, and single values can be far off.
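Note: viability estimated indirectly by image-based GFP quantification with live-cell imaging of the constitutively GFP-expressing human colorectal cancer line, no immune cells added.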

The test system of the test is HCT116-GFP. The test is described as follows: HCT116-GFP viability (GFP intensity) relative to untreated control, monoculture; higher = less cancer cell killing. The following applies: culture: HCT116-GFP monoculture; 10 µM; 72 h.
As to `CC[C@@H](CO)NCCN[C@@H](CC)CO` [Ethambutol dihydrochloride], the HCT116-GFP viability amounted to 96.9%. In the case of `CC(CN(C)C)C(C)(O)Cc1ccc(Cl)cc1` (stereo not given) [Clobutinol hydrochloride], the HCT116-GFP viability is 104%.

As for `C[C@]1(Cn2ccnn2)[C@H](C(=O)O)N2C(=O)C[C@H]2S1(=O)=O` [Tazobactam], the HCT116-GFP viability turned out to be 113%. For `CCCOc1ccc(C(=O)OCCN(CC)CC)cc1N` [Proparacaine hydrochloride], the HCT116-GFP viability came out at 111%. On to `C=CCSCC1Nc2cc(Cl)c(S(N)(=O)=O)cc2S(=O)(=O)N1` (stereo not given) [Althiazide], for which the HCT116-GFP viability was 119%. The value for `c1ccc(CN(CC2=NCCN2)c2ccccc2)cc1` [Antazoline hydrochloride] was 99.6%; that for `CN(C)CC/C=C1/c2ccccc2COc2ccc(CC(=O)O)cc21` [Olopatadine hydrochloride] was 99.5%; that for `CC(C(=O)O)c1ccc(C(=O)c2ccccc2)s1` (stereo not given) [Tiaprofenic acid] was 93.7%. Regarding `CC(=O)N(CC(O)CN(C(C)=O)c1c(I)c(C(=O)NCC(O)CO)c(I)c(C(=O)NCC(O)CO)c1I)c1c(I)c(C(=O)NCC(O)CO)c(I)c(C(=O)NCC(O)CO)c1I` (stereo not given) [Iodixanol], the HCT116-GFP viability was determined as 94.6%.

Consider `COc1c(N2CCNC(C)C2)c(F)cc2c(=O)c(C(=O)O)cn(C3CC3)c12` (stereo not given) [Gatifloxacin], for which the HCT116-GFP viability came to 93.2%. Turning to `O=C(c1ccccc1)c1ccc2n1CCC2C(=O)O` (stereo not given) [Ketorolac tromethamine], the HCT116-GFP viability was found to be 103%. For `CCOC(=O)[C@@](C)(N)Cc1ccc(O)c(O)c1` [Methyldopate hydrochloride], the HCT116-GFP viability was determined as 48.5%. Regarding `CN1Cc2c(N)cccc2C(c2ccccc2)C1` (stereo not given) [Nomifensine maleate], the HCT116-GFP viability worked out at 107%. The value for `CC(C)(O)c1ccccc1CC[C@@H](SCC1(CC(=O)O)CC1)c1cccc(/C=C/c2ccc3ccc(Cl)cc3n2)c1` [Montelukast] was 91.2%. Turning to `c1ccc(CNc2ncnc3nc[nH]c23)cc1` [Aminopurine, 6-benzyl], the HCT116-GFP viability came out at 93.9%.

Regarding `NC1CCN(c2nc3c(cc2F)c(=O)c(C(=O)O)cn3-c2ccc(F)cc2F)C1` (stereo not given) [Tosufloxacin hydrochloride], the HCT116-GFP viability stood at 65.6%. For the molecule `COC(=O)Nc1nc2cc([S+]([O-])c3ccccc3)ccc2[nH]1` (stereo not given) [Oxfendazol], the HCT116-GFP viability amounted to 55.9%. Take `Nc1ccn([C@@H]2CS[C@H](CO)O2)c(=O)n1` [Lamivudine]: the HCT116-GFP viability was found to be 93.3%. The same measure for `Cc1cc(N)c2ccccc2[n+]1CCCCCCCCCC[n+]1c(C)cc(N)c2ccccc21` [Dequalinium dichloride]: 35.2%. With `COc1ccccc1OCC(O)COC(N)=O` (stereo not given) [Methocarbamol], the HCT116-GFP viability came out at 98.1%. The same measure for `CO/N=C(\C(=O)N[C@@H]1C(=O)N2C(C(=O)OC(C)OC(C)=O)=C(COC(N)=O)CS[C@H]12)c1ccco1` (stereo not given in full) [Cefuroxime axetil]: 97.8%; for `COc1ccc(CC2c3cc(OC)c(OC)cc3CC[N+]2(C)CCC(=O)OCCCCCOC(=O)CC[N+]2(C)CCc3cc(OC)c(OC)cc3C2Cc2ccc(OC)c(OC)c2)cc1OC` (stereo not given) [Atracurium besylate]: 88%; for `CC(=O)[C@H]1CC[C@H]2[C@@H]3CC=C4C[C@@H](O)CC[C@]4(C)[C@H]3CC[C@]12C` [Pregnenolone]: 97.2%. The same measure for `CCN(CCO)CCCC(C)Nc1ccnc2cc(Cl)ccc12` (stereo not given) [Hydroxychloroquine sulfate]: 93.7%.

For `CCCCN1CCCCC1C(=O)Nc1c(C)cccc1C` (stereo not given) [Bupivacaine hydrochloride], the HCT116-GFP viability was found to be 93.9%. In the case of `CCOC(=O)NNc1nncc2ccccc12` [Todralazine hydrochloride], the HCT116-GFP viability was 97.1%. With `CC(C)(C)c1ccc(C(O)CCCN2CCC(C(O)(c3ccccc3)c3ccccc3)CC2)cc1` (stereo not given) [Terfenadine], the HCT116-GFP viability is 1.21%. Consider `CC(COc1ccccc1)NC(C)C(O)c1ccc(O)cc1` (stereo not given) [Isoxsuprine hydrochloride], for which the HCT116-GFP viability was 114%. The value for `Nc1ccc(S(=O)(=O)Nc2ccccn2)cc1` [Sulfapyridine] was 110%; that for `COc1ccnc(C[S+]([O-])c2nc3cc(OC(F)F)ccc3[nH]2)c1OC` (stereo not given) [Pantoprazole sodium] was 105%.

`Nc1ccn([C@@H]2O[C@H](CO)[C@@H](O)[C@@H]2O)c(=O)n1` [Cytarabine]: the HCT116-GFP viability came to 15.6%.

As for `C[C@@H]1C[C@H]2[C@@H]3C[C@H](F)C4=CC(=O)C=C[C@]4(C)[C@@]3(F)[C@@H](O)C[C@]2(C)[C@@]1(O)C(=O)COC(=O)C(C)(C)C` [Flumethasone pivalate], the HCT116-GFP viability turned out to be 92.3%. Take `CCOc1ccccc1OC(c1ccccc1)C1CNCCO1` (stereo not given) [Reboxetine mesylate]: the HCT116-GFP viability is 86.4%. Consider `CN(C)CCCN1c2ccccc2Sc2ccc(Cl)cc21` [Chlorpromazine hydrochloride], for which the HCT116-GFP viability came out at 20.8%. In the case of `CN(C)c1ccc(O)c2c1C[C@H]1C[C@H]3[C@H](N(C)C)C(O)=C(C(N)=O)C(=O)[C@@]3(O)C(O)=C1C2=O` [Minocycline hydrochloride], the HCT116-GFP viability is 94.8%. The same measure for `Cc1ccsc1/C=C/C1=NCCCN1C` [Morantel tartrate]: 108%; for `Nc1nc(NC2CC2)c2ncn([C@H]3C=C[C@@H](CO)C3)c2n1` [Abacavir Sulfate]: 84.7%. Turning to `CN(Cc1cnc2nc(N)nc(N)c2n1)c1ccc(C(=O)N[C@@H](CCC(=O)O)C(=O)O)cc1` [Methotrexate], the HCT116-GFP viability is 30.2%. The same measure for `CN(Cc1cnc2nc(N)nc(N)c2n1)c1ccc(C(=O)N[C@@H](CCC(=O)O)C(=O)O)cc1` (racemic) [Amethopterin (R,S)]: 30.8%; for `O=C(COc1ccc(Cl)cc1)N1CCN(Cc2ccc3c(c2)OCO3)CC1` [Fipexide hydrochloride]: 94.3%. On to `CNC(C)CCC=C(C)C` (stereo not given) [Isometheptene mucate], for which the HCT116-GFP viability was found to be 96%. In the case of `CCN(CC)CCNc1ccc(CO)c2sc3ccccc3c(=O)c12` [Hycanthone], the HCT116-GFP viability is 12.8%. The value for `OC(CCCN1CCCCC1)(c1ccccc1)c1ccccc1` [Diphenidol hydrochloride] was 89.6%. As for `CCN(CC)CCOC(=O)C(c1ccccc1)c1ccccc1` [Adiphenine hydrochloride], the HCT116-GFP viability came out at 98.3%. Take `CCOC(=O)c1ccc(N)cc1` [Benzocaine]: the HCT116-GFP viability is 87.1%. Turning to `C[C@]12CC[C@@H]3c4ccc(OS(=O)(=O)O)cc4CC[C@H]3[C@@H]1CCC2=O` [Estropipate], the HCT116-GFP viability worked out at 103%. `COc1cccc(OC)c1C(=O)N[C@@H]1C(=O)N2[C@@H]1SC(C)(C)[C@@H]2C(=O)O` [Methicillin sodium]: the HCT116-GFP viability is 95.8%. Regarding `Cc1ccc(S(=O)(=O)NC(=O)NN2CCCCCC2)cc1` [Tolazamide], the HCT116-GFP viability turned out to be 101%. Turning to `CCCCC1(COC(=O)CCC(=O)O)C(=O)N(c2ccccc2)N(c2ccccc2)C1=O` [Suxibuzone], the HCT116-GFP viability came to 117%. `COc1cc(NC(C)CCCN)c2ncccc2c1` (stereo not given) [Primaquine diphosphate]: the HCT116-GFP viability came out at 5.59%. In the case of `CCCCNc1c(C(=O)OCC)c(C)nc2c1cnn2CC` [Tracazolate hydrochloride], the HCT116-GFP viability was 89%. With `COc1cc(-c2ccc(=O)[nH]n2)ccc1OC(F)F` [Zardaverine], the HCT116-GFP viability was determined as 108%. With `CSc1ccc2c(c1)N(CCC1CCCCN1C)c1ccccc1S2` (stereo not given) [Thioridazine hydrochloride], the HCT116-GFP viability worked out at 44.6%. As for `CC1=C(/C=C/C(C)=C/C=C/C(C)=C\C(=O)O)C(C)(C)CCC1` [Isotretinoin], the HCT116-GFP viability was determined as 99.7%.

Take `CC/C(=C(/CC)c1ccc(O)cc1)c1ccc(O)cc1` [Diethylstilbestrol]: the HCT116-GFP viability was 98.6%.

As to `NC(N)=Nc1nc(CSCC/C(N)=N/S(N)(=O)=O)cs1` [Famotidine], the HCT116-GFP viability was found to be 100%. On to `Cc1cc(-c2ccccc2)nnc1NCCN1CCOCC1` [Minaprine dihydrochloride], for which the HCT116-GFP viability was 98%. On to `CN(C)[C@@H]1C(O)=C(C(N)=O)C(=O)[C@@]2(O)C(O)=C3C(=O)c4c(O)cccc4[C@@](C)(O)[C@H]3[C@H](O)[C@@H]12` [Oxytetracycline dihydrate], for which the HCT116-GFP viability is 95.2%. `C[C@@](Cc1ccc(O)c(O)c1)(NN)C(=O)O` [Carbidopa]: the HCT116-GFP viability worked out at 89.5%. The value for `CCOc1nc2cccc(C(=O)O)c2n1Cc1ccc(-c2ccccc2-c2nnn[nH]2)cc1` [Candesartan] was 86.4%; that for `Nc1ncnc2c1ncn2[C@@H]1O[C@H](CO)[C@@H](O)[C@@H]1O` [Vidarabine] was 107%; that for `CC(=O)OC[C@H]1O[C@@H]([S-])[C@H](OC(C)=O)[C@@H](OC(C)=O)[C@@H]1OC(C)=O.CCP(CC)CC.[Au+]` [Auranofin] was 1.37%. With `CCC1(c2ccccc2)C(=O)NCNC1=O` [Primidone], the HCT116-GFP viability amounted to 96%. As to `O=C1CC[C@@H](C(=O)N2CSC[C@H]2C(=O)O)N1` [Pidotimod], the HCT116-GFP viability was found to be 102%. Turning to `Oc1c(Cl)cc(Cl)c2cccnc12` [Chloroxine], the HCT116-GFP viability came to 27.2%. As to `c1ccc(-c2ccc(C(c3ccccc3)n3ccnc3)cc2)cc1` (stereo not given) [Bifonazole], the HCT116-GFP viability worked out at 80%. The same measure for `CN(C)CCC(c1ccc(Br)cc1)c1ccccn1` (stereo not given) [Brompheniramine maleate]: 103%; for `CN1CCN(CC(=O)N2c3ccccc3C(=O)Nc3cccnc32)CC1` [Pirenzepine dihydrochloride]: 96.8%; for `COC(=O)Nc1nc2cc(Sc3ccccc3)ccc2[nH]1` [Fenbendazole]: 14%. Consider `CN(CCCCCCCCCCN(C)C(=O)Oc1cccc([N+](C)(C)C)c1)C(=O)Oc1cccc([N+](C)(C)C)c1` [Demecarium bromide], for which the HCT116-GFP viability turned out to be 79.6%. Regarding `CC(=O)N(CC(O)CO)c1c(I)c(C(=O)NCC(O)CO)c(I)c(C(=O)NCC(O)CO)c1I` (stereo not given) [Iohexol], the HCT116-GFP viability was determined as 101%.

Consider `Cn1c(=O)c2c(ncn2CC2OCCO2)n(C)c1=O` [Doxofylline], for which the HCT116-GFP viability is 95.1%. For the molecule `Cc1cc(O)c(C(=O)N[C@@H](C(=O)N[C@@H]2C(=O)N3C(C(=O)O)=C(CSc4nnnn4C)CS[C@H]23)c2ccc(O)cc2)cn1` [Cefpiramide], the HCT116-GFP viability was found to be 97.5%. With `CCCNC(=O)NS(=O)(=O)c1ccc(Cl)cc1` [Chlorpropamide], the HCT116-GFP viability was found to be 93.3%.

In the case of `CCN(CC)C(C)CN1c2ccccc2Sc2ccccc21` (stereo not given) [Ethopropazine hydrochloride], the HCT116-GFP viability was determined as 88.3%.
